Assay results taken from the supplement of paper PMC11417369.
The list shows a part of the results.

The sequences below were run on PfSIP2 AP2 domain 1 (GST-tagged) (assay: gcPBM binding intensity (ln(normalized median fluorescence intensity)); higher = stronger DNA binding).
Method in brief: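 After 1 h on an Agilent 4 × 180k array of primer-extended double-stranded 36-bp intergenic genomic probes and negative controls, bound GST-tagged P. falciparum DNA-binding domains were detected with Alexa488 anti-GST antibody and scanned at 488 nm. The domains had been expressed in E. coli, and binding took place in 1× PBS with 1% milk, 0.2 mg/ml BSA, 0.5% salmon testes DNA and 0.03% Triton X-100. Binding intensity is the highest Masliner-normalised natural-log median intensity across replicate spots of either probe orientation.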
For “ATTAAATCGATATATACACACATGTTTGGTATATTC [CACACA_site7285]”, the “gcPBM binding intensity (ln)” value was 6.78.
With “TTAAAATAAAGTAGTGGTACAAAAAAAAAAAAAAAA [XGTACX_site6322]” the “gcPBM binding intensity (ln)” value was 7.08.
With “AGTAATAGTTTGTGCACACTCAAGTATATCATATAT [CACACA_site4034]” the “gcPBM binding intensity (ln)” value was 9.56.
“TTTTACTTAAAACACACACACACAAAAAAAAAAAAA [CACACA_site947]” was tested, and the “gcPBM binding intensity (ln)” value was 7.08.
“TTTTTTATTTTAAAAACATGCATAAAATATAATAGT [TGCATGCA_site762]” was tested, and the “gcPBM binding intensity (ln)” value was 7.49.
“AGATAAAAAAAGTACACACACACATATATTTATATA [CACACA_site7437]” was tested, and the “gcPBM binding intensity (ln)” value was 7.48.
For “TATATATTTAATTTCACACATATATATAATTATTAT [CACACA_site4936]”, the “gcPBM binding intensity (ln)” value was 7.03.
For “ATACACACTTAAAAAAGTACTTAACTACATGAATTG [XGTACX_site1203]”, the “gcPBM binding intensity (ln)” value was 7.13.
With “ATATTATATATAAAATGTACATTTAAAAATATTATA [XGTACX_site889]” the “gcPBM binding intensity (ln)” value was 7.05.
With “TTTTTTTTTTTTTAAACATGCATAATAAATATAATA [TGCATGCA_site265]” the “gcPBM binding intensity (ln)” value was 7.05.
For “TTTTTTATTTTGTGCACACACATAAAAATATATATA [CACACA_site761]”, the “gcPBM binding intensity (ln)” value was 9.42.
“TTGTTTTCTTATTATTACTACAATACTTAAGTCAGA [TGCATGCA_negctrl_site184]” was tested, and the “gcPBM binding intensity (ln)” value was 7.02.
With “TAATCATAACTTGATACGCACACGTTATATAAATAA [CACACA_site1579]” the “gcPBM binding intensity (ln)” value was 7.02.
For “TATTTATTTATGGACACACATACAAATCTTCCAGAC [CACACA_site942]”, the “gcPBM binding intensity (ln)” value was 7.14.
For “TTTTGTTGGATACAAAAATTACAAATTATTTAAAAA [TGCATGCA_negctrl_site532]”, the “gcPBM binding intensity (ln)” value was 6.69.
For “GAATACATAATAACATGTACACACATTCTTCTATAA [XGTACX_site8725]”, the “gcPBM binding intensity (ln)” value was 7.04.
In the case of “TATATATATAGAAATGCATGTTAATAAAAGTTATAA [TGCATGCA_site947]”, the “gcPBM binding intensity (ln)” value is reported as 8.13.
For “TATCATAAAAAATATACACACAAAGGATATTTATAT [CACACA_site6841]”, the “gcPBM binding intensity (ln)” value was 7.
For “TATGAACACCAACACACACACAAAAAAAAAAAAAAA [CACACA_site2013]”, the “gcPBM binding intensity (ln)” value was 7.3.
For “AAAAAAAAATCAAAATGTACTTATTTTTATAATAAT [XGTACX_site4712]”, the “gcPBM binding intensity (ln)” value was 6.89.
“TAATTATGCCAACACACACACACACCCAACTAAAAA [CACACA_site8823]” was tested, and the “gcPBM binding intensity (ln)” value was 7.32.
“AACATCAATTTATTTTCTTACATTATACGATTCATG [CACACA_negctrl_site1300]” was tested, and the “gcPBM binding intensity (ln)” value was 6.89.
For “ATGATGTGCAAGAGTAGTACACAATTTTGGGTTTAT [XGTACX_site501]”, the “gcPBM binding intensity (ln)” value was 7.73.
With “AAACATAAGAAACACACACACATATATATATATATA [CACACA_site3642]” the “gcPBM binding intensity (ln)” value was 9.32.
For “ATTCTTATAACAAGAAGTACAAATATATGTATATAT [XGTACX_site4528]”, the “gcPBM binding intensity (ln)” value was 7.17.
For “TTTTTTTTTAAGATGAAGATCAATATATAAATATAT [CACACA_negctrl_site1538]”, the “gcPBM binding intensity (ln)” value was 6.72.
“AGAATATCAAAATAAAGTACATTTATTATATATATG [XGTACX_site7100]” was tested, and the “gcPBM binding intensity (ln)” value was 7.15.
For “TTTTCTCTCAAAAAATGTACATAATATATATATTTT [XGTACX_site4861]”, the “gcPBM binding intensity (ln)” value was 7.1.
With “AAAAAAAAAAAACATACACACATACATACCTATATA [CACACA_site6575]” the “gcPBM binding intensity (ln)” value was 6.91.
“CGTATATATAAATACACACACATATATATCTGTAAA [CACACA_site4272]” was tested, and the “gcPBM binding intensity (ln)” value was 7.14.
In the case of “TTAATTTATTTATGCACACATATATAATTACCCATA [CACACA_site682]”, the “gcPBM binding intensity (ln)” value is reported as 7.53.
With “AATTAAATTACTTATACACACATAAAATGGGTGTAT [CACACA_site4703]” the “gcPBM binding intensity (ln)” value was 6.77.
In the case of “AAAAAAAAAAAAAAGCGTACAAATAAAATATATTTA [XGTACX_site7195]”, the “gcPBM binding intensity (ln)” value is reported as 7.21.
In the case of “TAAATGTCCTTATTTGCACACACACCCATAAGAAAT [CACACA_site3185]”, the “gcPBM binding intensity (ln)” value is reported as 7.38.
With “CCTTTTTTGTTTTATGCACACCATATAACCAAGGCT [CACACA_site7893]” the “gcPBM binding intensity (ln)” value was 7.84.
“TATATATAAAAATATACACACACAAATGTATATATA [CACACA_site7956]” was tested, and the “gcPBM binding intensity (ln)” value was 6.87.
For “ATGTAATGAAACATTGCACACATATAATAATATAAT [CACACA_site8402]”, the “gcPBM binding intensity (ln)” value was 7.15.
For “TTTTTATATGCGTATTGTACATTATACATATATATA [XGTACX_site6786]”, the “gcPBM binding intensity (ln)” value was 7.35.
In the case of “TTTACATTTATGTGCACACATTCCATTTGAAAGTAA [CACACA_site1953]”, the “gcPBM binding intensity (ln)” value is reported as 9.2.
With “AATATTTTTTTTTAAACATGCATATTTGCATTACCC [TGCATGCA_site437]” the “gcPBM binding intensity (ln)” value was 6.99.
In the case of “TGTATATATTTTAATAGTACTCATATATATATATAT [XGTACX_site7216]”, the “gcPBM binding intensity (ln)” value is reported as 9.43.
“ATAACTTTCTATACATGTACACATATATGGTATTTT [XGTACX_site7535]” was tested, and the “gcPBM binding intensity (ln)” value was 7.3.
With “ATAAATTTTTTATGAACACACAAATACACCCACTCA [CACACA_site5465]” the “gcPBM binding intensity (ln)” value was 7.41.
With “CTTATAAAAAAAATTGCACACATATTATACAGGACG [CACACA_site8133]” the “gcPBM binding intensity (ln)” value was 7.5.
“ATTGTGTTGACGGGTGACCCTTCCAGAGAAATAGAA [CACACA_negctrl_site1362]” was tested, and the “gcPBM binding intensity (ln)” value was 6.97.
